About 6,900 (2%) of roughly 340,000 compounds were called active. Cut-off read from the data, not from the text of the source: active = inhibition above about 30%; inactive = below that, where a call was filed. This is a selection; strong and weak results do not stand in their true shares. The source gives no active or inactive call for entries shown without one.
target: D(2) dopamine receptor (Homo sapiens) (UniProt P14416); experiment: HTS Assay for Allosteric Antagonists of the Human D2 Dopamine Receptor: Primary Screen for Antagonists; settings: HEK293 TREx D2 cells, calcium flux, dopamine EC80; at 10 µM; stronger effect = higher value; note: 0% is about no effect
Sequence of UniProt P14416 (P14416 whole entry, looked up): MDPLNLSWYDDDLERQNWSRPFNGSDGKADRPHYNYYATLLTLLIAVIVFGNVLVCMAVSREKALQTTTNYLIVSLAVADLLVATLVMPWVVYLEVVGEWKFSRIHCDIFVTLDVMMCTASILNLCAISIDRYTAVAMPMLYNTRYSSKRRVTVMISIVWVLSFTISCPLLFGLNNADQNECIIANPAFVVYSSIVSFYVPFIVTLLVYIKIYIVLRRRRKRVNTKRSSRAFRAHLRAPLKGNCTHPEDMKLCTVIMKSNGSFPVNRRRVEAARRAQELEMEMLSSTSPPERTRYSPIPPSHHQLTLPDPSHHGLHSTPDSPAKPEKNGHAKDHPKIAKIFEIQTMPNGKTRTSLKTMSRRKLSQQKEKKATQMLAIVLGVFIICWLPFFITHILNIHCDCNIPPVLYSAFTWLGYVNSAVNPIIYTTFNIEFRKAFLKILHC
How it was run: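 Measurement of antagonist activity uses fluorescent calcium dye in inducible HEK293 T-REx D2 cells: 10 s baseline, compound addition with 180 s read, EC80 dopamine addition with a further 180 s read.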

| SMILES | inhibition |
| --- | --- |
| COCC(=O)Oc1c(Sc2ccc(C)cc2)c(C)nn1C(C)(C)C | 25.2% |
| COc1cc(-c2ccno2)ccc1S(=O)(=O)N1CCN(c2cc(C)ccc2C)CC1 | -1.88% |
| COc1cccc(N2CC(NC(=O)C(c3ccccc3)c3ccccc3)CC2=O)c1 (stereo unspecified) | 12% |
| CC(C)c1ccc(S(=O)(=O)c2nnn3c2nc(NCCc2ccccc2)c2sccc23)cc1 | -24.3% |
| Cc1ccc(CNC(=O)c2cc3sccc3n2Cc2ccc(Cl)cc2)cc1 | 5.65% |
| CCCn1c(=O)c2sccc2n2c(CCCC(=O)NCCc3ccc(Cl)cc3)nnc12 | -3.24% |
| CC(CCc1ccccc1)NC(=O)Cn1ncc2c3ccccc3n(Cc3ccc(F)cc3)c2c1=O (stereo unspecified) | -11.7% |
| CC(=O)Nc1ccc(S(=O)(=O)NCC2CCC(C(=O)NCCc3ccccc3)CC2)cc1 (stereo unspecified) | -25.3% |
| Cc1nn(C(=O)c2cccc([N+](=O)[O-])c2C)c(C)c1S(=O)(=O)N1CCOCC1 | 24.4% |
| Cc1ccc(NC(=O)Cc2c(C(=O)O)c(C)cn2C)cc1Cl | 2.71% |
| CC(C)OCCCn1c(SCc2ccccc2C#N)nc2c(sc3ccccc32)c1=O | -4.57% |
| O=C(c1ccco1)N1CCN(Cc2ccccc2F)CC1 | active: 80.3% |
| CN(C(=O)C1CCCN(c2ncnc3c2nc2n3CCCCC2)C1)c1ccccc1F (stereo unspecified) | -1.52% |
| COc1cc(OC)c(NC(=O)CN2C(=O)CCn3nc(-c4cccn4C)cc32)cc1Cl | 18.3% |
| CCOc1ccc(NC(=O)C(=O)NCCc2csc(-c3ccc(F)cc3)n2)cc1 | -8.21% |
| c1ccc(-n2ncc3c(NC4CCCC4)ncnc32)cc1 | 15.4% |
| CCc1cccc(NC(=O)Nc2ccc3c(c2)N(C)C(=O)c2ccccc2S3)c1 | 5.67% |
| COc1ccc(NS(=O)(=O)c2cc3[nH]c(=O)c(=O)[nH]c3cc2C)cc1Cl | 17% |
| CCOc1ccc(/C=C/c2nc(C#N)c(N3CCN(c4ccc(OC)cc4)CC3)o2)cc1 | 4.73% |
| CCC(=O)N1CCc2cc(Br)cc(S(=O)(=O)CCC(=O)NCCc3ccc(OC)c(OC)c3)c21 | 3.28% |
| Cn1cc(S(=O)(=O)N2CCCCCC2)cc1C(=O)N1CCN(c2ccc(F)cc2)CC1 | -5.31% |
| Cc1cc(OCC(=O)Nc2ccc(-c3nc4cc(Cl)ccc4o3)cc2)cc(C)c1Cl | -0.562% |
| Cn1c(=O)c(NCCO)c2c3c(cccc31)C(=O)c1ccccc1-2 | active: 82.4% |
| NS(=O)(=O)c1ccc(CCNC(=O)C2COc3ccccc3C2)cc1 (stereo unspecified) | 0.362% |

| SMILES | inhibition |
| --- | --- |
| CCc1ccc(C2CC(=O)c3c([nH]c(C(=O)OCC4CCCCC4)c3C)C2)cc1 (stereo unspecified) | -0.874% |
| O=C(COc1ccccc1)NCc1ccc2c(c1)CCN2C(=O)c1ccc(F)cc1 | -5% |
| Cc1ccc(Cn2c(=O)c3cccnc3n(CC(=O)Nc3cccc(C(F)(F)F)c3)c2=O)cc1 | -14.1% |
| Cc1ccc(-n2ncc3c(N4CCCCCC4)ncnc32)cc1 | -5.87% |
| COc1cc(NC(=O)CCn2c(-c3ccccc3)cc(C(C)=O)c2C)cc(OC)c1 | -0.921% |
| COc1ccc(NC(=O)C(NS(=O)(=O)c2ccc3c(c2)CCCC(=O)N3)C(C)C)c(OC)c1 (stereo unspecified) | -8.54% |
| Cc1c(Cl)cccc1NC(=O)CSc1ncnc2c1sc1ccccc12 | 14.9% |
| Cc1cc(=O)oc(C)c1C(=O)NCCCN1CCN(c2ccccc2F)CC1 | active: 46.8% |
| Cc1cccc(CNC(=O)c2oc3c(c2C)-c2nn(Cc4ccccc4Cl)cc2CC3)c1 | 1.62% |
| Cc1cc(NC(=O)c2ccc(Br)o2)cc(-c2nc3ccccc3o2)c1O | -11.1% |
| Cc1ccc(-n2nc(C(=O)N3CCN(c4cc(Cl)ccc4C)CC3)c(=O)n(C)c2=O)cc1 | -19.9% |
| CCCCNC(=O)C1CCCN(Cc2nc(-c3ccc(Cl)cc3)oc2C)C1 (stereo unspecified) | -15.5% |
| CCc1ccc(C(=O)c2cn(CC(=O)Nc3ccc(F)c(F)c3)c3cc(OC)c(OC)cc3c2=O)cc1 | -9.02% |
| CC(C)CCNC(=O)c1cccc(Nc2nc3ccccc3n3nnnc23)c1 | 20.2% |
| CCCCSCCCNC(=O)c1ccc2c(c1)N(CC)C(=O)c1ccccc1S2=O (stereo unspecified) | active: 30.3% |
| COc1ccc(Cl)cc1NC(=O)c1ccc2nc(Cc3ccccc3)oc2c1 | -4.46% |
| CCCC(=O)Nc1cc(C)c(O)c(-c2nc3ncccc3o2)c1 | -23.8% |
| Cc1nc2c(-c3ccccc3)c(C)nn2c(C)c1CCC(=O)NC(C)c1ccccc1 (stereo unspecified) | -10.6% |
| COc1cccc(CNC(=O)C2CCCN(S(=O)(=O)c3ccc4c(ccn4C)c3)C2)c1 (stereo unspecified) | 17.7% |
| CCC(C(=O)Nc1ccc(C(=O)OC)cc1)n1c(=O)c(-c2ccccc2NC(C)=O)nc2ccccc21 (stereo unspecified) | 10.7% |
| CCOC(=O)c1cccc(NC(=O)c2oc3c(c2C)-c2[nH]ncc2CC3)c1 | 8.57% |
| CCCN(C(=O)c1cc2c(s1)-c1ccccc1OC2)c1ccccc1F | -6.48% |
| COc1ccc(NC(=O)CC2C(=O)N(c3ccc(F)cc3)C(=O)N2Cc2cccnc2)cc1 (stereo unspecified) | -5.73% |
| COc1cc(CN(C(=O)Nc2ccccc2)c2ccccn2)cc(OC)c1OC | -0.517% |

| SMILES | inhibition |
| --- | --- |
| CCc1ccccc1NS(=O)(=O)c1ccc2[nH]cc(C(=O)N3CCCCC3)c(=O)c2c1 | -16.3% |
| CCOc1cccc2cc(-c3nc(-c4ccccc4C)no3)c(=O)oc12 | 1.63% |
| COc1ccc(COc2ccccc2C(=O)NCc2ccccc2)cc1F | active: 41.5% |
| O=C(Nc1ccc(Cl)cc1)C1CCCN(S(=O)(=O)c2ccc3[nH]c(=O)ccc3c2)C1 (stereo unspecified) | -9.14% |
| Cc1cc(F)ccc1NC(=O)CCS(=O)(=O)c1ccc2c(c1)NC(=O)CO2 | 24.3% |
| CCOC(=O)c1ccccc1NC(=O)CSc1cn(CC(=O)N2CCCCC2)c2ccccc12 | 6.9% |
| COc1ccc(NCc2cc3cc4c(cc3n(CC(=O)Nc3ccc(F)cc3F)c2=O)OCO4)cc1 | -4.52% |
| CCc1ccccc1NS(=O)(=O)c1ccc(OC)c2ncccc12 | -20.6% |
| COc1ccc2c(C)c(CCC(=O)NCCc3ccccc3OC)c(=O)oc2c1 | 12.5% |
| CCOC(=O)c1cnc2c(Cl)cccc2c1NCCN1CCOCC1 | -2.07% |
| COC(=O)CCSc1nc2sc3c(c2c(=O)n1Cc1ccccc1)CCC(C(C)(C)C)C3 (stereo unspecified) | 8.87% |
| CC1=C(C(=O)OC2CCCCCC2)C(c2c(F)cccc2Cl)CC(=O)N1 (stereo unspecified) | 8.47% |
| CCN(CCCNC(=O)c1c(C)oc2ncn(CC(C)C)c(=O)c12)Cc1ccccc1 | 13.7% |
| Cc1ccc(Cl)cc1NC(=O)c1oc2c(c1C)-c1[nH]ncc1CC2 | 0.394% |
| COc1ccc(N(Cc2cccs2)C(=O)COc2cccc(Cl)c2)cc1 | 12.3% |
| CCOC(=O)c1c(-c2ccccc2)oc2ccc(OCC(=O)O)cc12 | active: 32.8% |
| C=CCNc1nc(N2CCCCC2)c(C#N)c2c1CN(Cc1ccccc1)CC2 | active: 72.4% |
| Cn1c(=O)n(-c2ccc(F)c(Cl)c2)c(=O)c2sc3ccccc3c21 | -5.92% |
| CC(C)C[C@@H](CO)N1CCN(CCCc2ccccc2)CCC1=O | active: 34.7% |
| CCOC(=O)c1c(Nc2ccc(C)cc2)nnc(-c2ccccc2)c1-c1ccccc1 | 3.46% |
| COc1ccc(N2CCN(S(=O)(=O)c3ccc4c(c3)CC(C)N4C(C)=O)CC2)cc1 (stereo unspecified) | 3.44% |
| COc1ccccc1N1CCN(CCN(C(=O)c2ccc(F)cc2)c2ccccn2)CC1 | active: 60.6% |
| COc1ccc(NC(=O)C2Cc3ccccc3N2C(=O)c2ccccc2)c(OC)c1 (stereo unspecified) | 3.76% |
| CCOc1ccccc1NC(=O)c1cc2c(Cl)nc3ccccc3c2s1 | 1.06% |

| SMILES | inhibition |
| --- | --- |
| Cc1ccc(-n2ncc3c(NCCCN4CCOCC4)ncnc32)cc1 | -4.99% |
| CCOc1cc(C2C(C(=O)OC)=C(C)NC3=C2C(=O)c2ccccc23)cc(Cl)c1O (stereo unspecified) | -1.52% |
| O=C(CCC1N=C2c3ccccc3N=C(SCc3ccccc3F)N2C1=O)NC1CCCCC1 (stereo unspecified) | 12.8% |
| COc1cccc(-n2c(=O)c3c(C)c(C(=O)N(C)C)sc3n(Cc3ccc(F)cc3Cl)c2=O)c1 | -14.2% |
| CCn1c2ccccc2c2nnc(N3CCN(c4cc(C)ccc4C)CC3)nc21 | 8.41% |
| Fc1ccc(-c2nc(Nc3cccc(Cl)c3)nc3c2COc2ccccc2-3)cc1 | 12.2% |
| COc1ccc(NC(=O)CN(Cc2ccccc2)S(=O)(=O)c2ccc(C)cc2)cc1Cl | 0.771% |
| COC(=O)c1ccc(CNC(=O)C(C)N=C2NS(=O)(=O)c3ccccc32)cc1 (stereo unspecified) | active: 44.3% |
| CCCCNc1nc(Oc2ccc(=O)[nH]n2)nc(N(C)C)n1 | 17.6% |
| C=C(C)Cn1c(=O)c2c(nc3n2CCN3c2ccc(CC)cc2)n(C)c1=O | -7.17% |
| CSc1ncc(C(=O)Nc2ccccc2C(=O)c2ccccc2)c(C(F)(F)F)n1 | 2.33% |
| CCc1nn(CC(=O)NCCCN(CC)CC)c(=O)c2cc3sc(C)cc3n12 | -0.399% |
| Fc1ccc(-n2cc(-c3ccccc3)c3c(NC4CCCCC4)ncnc32)cc1 | 8.02% |
| CCOC(=O)c1cccc(NC(=O)c2cc3c(=O)n(Cc4ccccc4)ccc3nc2C)c1 | 5.54% |
| CCOC(=O)C1CCCN(S(=O)(=O)c2ccc3c(c2)CCCN3C(C)=O)C1 (stereo unspecified) | 7.07% |
| COc1ccc(CCNC(=O)c2cc3c(-c4ccccc4F)nn(C)c3s2)c(OC)c1 | -13.9% |
| O=C(Nc1ccc(Br)cc1F)c1cc(S(=O)(=O)NCc2ccc(F)cc2)ccc1F | -23.8% |
| NC(=O)c1nn(CC(=O)Nc2cccc(S(=O)(=O)N3CCCC3)c2)c(=O)c2ccccc12 | active: 44.4% |
| COc1ccc(NC(=O)c2cc3c(s2)-c2c(C)cccc2OC3)c(OC)c1 | -0.16% |
| CCCc1cc(=O)[nH]c(Nc2cccc(Cl)c2Cl)n1 | 6.12% |
| CCOc1ccc(-n2c(SCc3ccc(C(=O)OC)o3)nc3c([nH]c4ccccc43)c2=O)cc1 | 4.62% |
| CCOc1ccc(-c2cc(OC(=O)c3ccc(F)cc3)c3c(C)oc(C)c3c(=O)c2)cc1 | 15.9% |
| CCN1C(=O)c2ccccc2Sc2ccc(NC(C)=O)cc21 | -2.74% |
| COc1ccccc1-c1noc(-c2ccc(N3CCC(C)CC3)c([N+](=O)[O-])c2)n1 | 3.68% |
